Results taken from PubChem BioAssay AID1458 (National Center for Advancing Translational Sciences (NCATS), 2008).
Among all 210,000 compounds or so, about 5,900 (2.8%) were called active. Inconclusive results, whose numbers are uncertain, are shown with a selection of clear calls. Calls come from the whole dose curve; as a rule, active = well fitted activation curve with a large enough effect; inconclusive = small, poorly fitted or top-dose-only effect; inactive = no such curve, though single readings can be large or run the other way. Where the call is inconclusive, the potency comes from a doubtful curve fit.

Assay: qHTS Assay for Enhancers of SMN2 Splice Variant Expression; note: nearly all actives have a fitted effect of over 55% in size; for activity change, positive = activation: % of control where 0% means no effect
Settings: HEK293 SMN2-luciferase splicing reporter, luminescence, 30-36 h; activity change, positive = activation: at 46.1 µM (top of the series)
How it was run: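 HEK293 cells carry an SMN2 […]–luciferase reporter in which exon 7 inclusion puts luciferase in frame. Cells were plated 10-12 h before compound addition, then incubated 30-36 h at 37C. ONE-Glo luminescence was read; sodium butyrate at 4.5 mM final served as control.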
Potency is the fitted concentration of half-maximal effect; tags give direction and shape of the fitted curve.

Row | SMILES | Potency | activity change, positive = activation
1 | Cn1c(-c2ccccc2)c(/C=N/NC(=O)c2cccnc2)c2ccccc21 | inconclusive: 35.5 µM [activator, single point] | 
2 | CCOc1ccc(-c2nc(C)c(C(C)=O)n2O)cc1 | active: 12.6 µM | 
3 | Cn1c(=O)c2c(nc(N3CCOCC3)n2Cc2cccc(Br)c2)n(C)c1=O |  | inactive: -0.567%
4 | Nc1ccc(O)c(-c2nc3ccccc3s2)c1 | inconclusive: 14.1 µM [activator, single point] | 
5 | Cc1ccc(-c2cc(N)n(-c3ccc(C)cc3)n2)cc1 | inconclusive: 28.2 µM [activator, single point] | 
6 | O=C(NCc1cccnc1)C(=O)Nc1nccs1 |  | inactive: 5.54%
7 | CCc1ccc(C(=O)NC2CCCCC2)s1 | active: 12.6 µM | 
8 | O=C(Cc1cccs1)NC1C(=O)N2C(C(=O)[O-])=C(C[n+]3ccccc3)CSC12 (configuration not stated) |  | inactive: -1.63%
9 | COc1ccc(C(C(=O)NC2CCCC2)N(Cc2ccccc2)C(=O)CNC(=O)c2ccco2)cc1 (configuration not stated) |  | inconclusive: 37.3% [activator]
10 | Cc1ccc(NC(=O)Nc2cc(C)on2)cc1 | inconclusive: 12.6 µM [activator, single point] | 
11 | Cc1ccc(CN2CCN(/N=C/c3ccc(Cl)c([N+](=O)[O-])c3)CC2)cc1 |  | inactive: -64%
12 | Cc1nn(-c2ccccc2)c(Cl)c1C(=O)NCCCCNC(=O)c1c(C)nn(-c2ccccc2)c1Cl |  | inactive: 2.02%
13 | O=C(Nc1cccc2nsnc12)c1ccc2c(c1)OCCO2 | inconclusive: 11.2 µM [activator, single point] | 
14 | CC(=O)c1ccc2c(c1)C1C=CCC1C(c1ccc(S(=O)(=O)N3CCOCC3)cc1)N2 (configuration not stated) | inconclusive: 28.2 µM [activator, single point] | 
15 | Cc1cc(C)nc(SC2=CS(=O)(=O)c3ccccc32)n1 | inconclusive: 7.94 µM [activator, partial curve] | 
16 | CC(C)c1cc(C(=O)NCc2ccc(F)cc2)no1 | inconclusive: 14.1 µM [activator, single point] | 
17 | COc1ccc(-c2nc3cnc(N4CCNCC4)nc3n(C)c2=O)cc1 | inconclusive: 11.2 µM [activator, partial curve] | 
18 | COc1ccc(NC(=O)CSc2nnc(Cc3cccn3C)n2-c2ccc(C)cc2)cc1OC |  | inactive: -10.9%
19 | Cc1cccc2nc(CSc3nc4ccccc4o3)cn12 |  | inactive: -1.59%
20 | Clc1ccc(OCCSc2nnnn2C2CCCCC2)cc1 | inconclusive: 7.08 µM [activator, full curve] | 
21 | O=C(CSc1nc2ccc(Cl)cc2[nH]1)c1c[nH]c2ccccc12 | inconclusive: 12.6 µM [activator, single point] | 
22 | O=C1CCCC(O)=C1C=Nc1ccc2c(c1)oc1ccccc12 | inconclusive: 35.5 µM [activator, single point] | 
23 | COc1ccccc1NC(=O)N(Cc1ccccc1)c1ccccn1 | inconclusive: 10 µM [activator, partial curve, poor fit] | 
24 | COc1ccc(NC(=S)NC(=O)/C=C/c2ccco2)cc1 | inconclusive: 0.004 µM [activator, full curve, poor fit] | 
25 | CCOC(=O)c1sc(Nc2nc3c(OC)cccc3s2)nc1C | inconclusive: 0.0398 µM [activator, full curve, poor fit] | 
26 | CCOC(=O)c1ccc(N=c2scc(C)n2CC)cc1 | active: 25.1 µM | 

Row | SMILES | Potency | activity change, positive = activation
27 | COc1cc(C(C[N+](=O)[O-])c2c(C)[nH]c3ccccc23)cc(OC)c1OC (configuration not stated) | inconclusive: 14.1 µM [activator, single point] | 
28 | COCCCN=C1NN=C(c2cc(C)n(Cc3ccccc3Cl)c2C)CS1 | inconclusive: 15.8 µM [activator, partial curve] | 
29 | Cc1cccc(/C(N)=N/OC(=O)COc2ccccc2Cl)c1 | inconclusive: 35.5 µM [activator, single point] | 
30 | C/C(=N\OCC(=O)NCC(F)(F)F)c1cc2ccccc2o1 | inconclusive: 14.1 µM [activator, single point] | 
31 | COc1ccc(-n2ncc3c(NCc4cccs4)ncnc32)cc1 | inconclusive: 35.5 µM [activator, single point] | 
32 | O=C(Nc1nccs1)c1ccccn1 | inconclusive: 17.8 µM [activator, single point] | 
33 | c1csc(-c2nc(-c3ccncc3)no2)c1 | active: 15.8 µM | 
34 | COc1ccc(-n2c(NC(=O)c3ccco3)c(C#N)c3nc4ccccc4nc32)cc1 | inconclusive: 25.1 µM [activator, single point] | 
35 | CC1(C)SC(=Nc2ccccc2)N(S(=O)(=O)c2ccccc2)C1=O | inconclusive: 3.98 µM [activator, partial curve, poor fit] | 
36 | N#C/C(=N\Nc1ccc(S(=O)(=O)N2CCCCC2)cc1)C(N)=S |  | inactive: -45.1%
37 | COc1ccc(-c2cn3cc(Cl)ccc3n2)cc1OC | active: 11.2 µM | 
38 | CCCN(CCC)S(=O)(=O)c1ccc(C(=O)Nc2nnc(-c3cc(OC)cc(OC)c3)o2)cc1 |  | inactive: -81.5%
39 | COc1ccc(OC)c(Nc2nc(=O)c3cccnc3s2)c1 |  | inactive: 3.45%
40 | CN(c1ccccc1C(=O)Nc1ccc(S(=O)(=O)N2CCOCC2)cc1)S(=O)(=O)c1ccccc1 | inconclusive: 3.16 µM [activator, partial curve] | 
41 | Cc1ccc(S(=O)(=O)N(CC(=O)Nc2ccc(F)cc2F)Cc2ccc(F)cc2)cc1 |  | inactive: -15.1%
42 | CCCN(CCC)c1nc(Cl)nc(NCc2ccco2)n1 |  | inactive: -29%
43 | Cc1ccc(C(=O)/C=C\NCc2ccccc2)cc1 | inconclusive: 17.8 µM [activator, single point] | 
44 | Cc1cccc(/C(N)=N/OC(=O)c2ccc(F)cc2)c1 | inconclusive: 15.8 µM [activator, partial curve, poor fit] | 
45 | COCc1cc(C)nc2sc3c(c12)NC(c1ccccc1C(=O)O)N(c1cccc(C(F)(F)F)c1)C3=O (configuration not stated) |  | inactive: -6.07%
46 | COC(=O)C1=C(C)N(C)C(=O)NC1c1cc(Cl)cc(Cl)c1OC (configuration not stated) | inconclusive: 0.01 µM [activator, full curve] | 
47 | C/C(=N\NC(=O)c1cccc(N/N=C(\C)c2ccco2)c1)c1ccco1 |  | inactive: -3.81%
48 | CCCCCCCCCCCCCCC(F)C(=O)O (configuration not stated) | inactive | 
49 | c1ccc(CNc2ncnc3c2ncn3C2CCCCO2)cc1 (configuration not stated) | inconclusive: 12.6 µM [activator, single point] | 
50 | O=C(c1cc(-c2cccc(O)c2)on1)N1CCOCC1 | inconclusive: 35.5 µM [activator, single point] | 
51 | CCOc1ccc(NCc2nnc(SCC(=O)Nc3cc(C)on3)n2-c2ccccc2OC)cc1 | inconclusive: 7.08 µM [activator, full curve, poor fit] | 
52 | Cn1c(=O)c2cn3ncccc3c2n(C)c1=O | inconclusive: 20 µM [activator, single point] | 

Row | SMILES | Potency | activity change, positive = activation
53 | Clc1ccc(-c2cc3ncc4c(n3n2)-c2ccccc2OC4)cc1 |  | inactive: -3.29%
54 | CCOC(=O)c1sc2ncn(CC(=O)Nc3cc(Cl)ccc3C)c(=O)c2c1C |  | inactive: 12.8%
55 | O=C(Cc1nc2ccccc2[nH]1)c1ccc(Br)cc1 | inconclusive: 12.6 µM [activator, partial curve] | 
56 | Cc1nc(NC(=O)c2csc3ccccc23)sc1C | active: 7.94 µM | 
57 | COC(=O)Cc1c(C)nc2nc(-c3ccc(Cl)cc3)[nH]n2c1=O |  | inactive: 3.61%
58 | COc1ccccc1NC(=O)C12CCC(C)(C(=O)C1)C2(C)C (configuration not stated) |  | inactive: 0.0531%
59 | CCCCC(=O)Nc1cc2nn(-c3ccc(OC)cc3)nc2cc1C | inconclusive: 10 µM [activator, single point] | 
60 | COC(=O)c1sc2nc(CSc3nc4ccc(C)cc4[nH]3)[nH]c(=O)c2c1C |  | inactive: -2.32%
61 | CC1=C(C(=O)OCC(C)C)C2(O)C(=O)c3ccccc3C2(O)N1 (configuration not stated) | inconclusive: 0.794 µM [activator, single point] | 
62 | O=c1c2cnn(-c3ccc(F)cc3)c2ncn1Cc1ccccc1Cl |  | inactive: -1.3%
63 | CCOC(=O)c1cnc(SCc2ccc(C)cc2)nc1N | active: 11.2 µM | 
64 | CCC1=NN(C(=O)c2ccc(Br)cc2)C(O)(c2ccc(C)cc2)C1 (configuration not stated) | inconclusive: 22.4 µM [activator, partial curve, poor fit] | 
65 | COc1ccc(NC(=O)c2ccc(-c3ccc(OC)cc3)s2)cc1 | active: 10 µM | 
66 | O=C(O)c1cccnc1Nc1ccc(Cl)cc1 | active: 10 µM | 
67 | COc1cccc(-c2csc(-c3c(N)c(C(=O)c4ccc5c(c4)OCO5)n4ccccc34)n2)c1 | inconclusive: 5.62 µM [activator, single point] | 
68 | Nc1cc(N)nc(SCC(=O)N2CCc3ccccc32)n1 | inconclusive: 14.1 µM [activator, partial curve, poor fit] | 
69 | Cc1ccccc1-c1nc2ccccc2[nH]1 | active: 11.2 µM | 
70 | Cc1ccc(NC(=O)c2ccc3ccccc3n2)nc1 | active: 3.16 µM | 
71 | CCC(C)c1ccccc1NC(=O)C1CCCO1 (configuration not stated) |  | inactive: -11.3%
72 | N=c1c(C(=O)NC2CCCC2)cc2c(=O)n3ccccc3nc2n1CCN1CCOCC1 | inconclusive: 3.16 µM [activator, partial curve, poor fit] | 
73 | COc1cc(/C=N/NC(=O)Cc2c[nH]c3ccccc23)cc(OC)c1OC | inconclusive: 14.1 µM [activator, single point] | 
74 | COc1ccc(OCc2cccc(C(=O)O)c2)cc1 | active: 0.0398 µM | 
75 | Cc1ccc(/C=N/NC(=O)Nc2ccccc2)o1 | active: 11.2 µM | 
76 | O=C(Nc1ccc2c(c1)OCCO2)c1cccnc1 | inconclusive: 11.2 µM [activator, partial curve, poor fit] | 
77 | CCOc1ccc(NC(=O)CSc2ccccc2N)cc1 | inconclusive: 31.6 µM [activator, single point] | 
